The record followed here is PMC4336329 (PLoS ONE, 2015).

Molecules are shown by their SMILES. Screen size: about 310,000 compounds; about 2,200 (0.71%) showed an effect of 50% or more. Effects have a minus sign here. This is one part of the list.

The target in this test is human ether-à-go-go-related gene (hERG) potassium channel (human, UniProt Q12809). The test is described as follows: primary screen, population patch clamp on CHO cells stably expressing hERG.
human ether-à-go-go-related gene (hERG) potassium channel, sequence (Q12809 whole entry, looked up): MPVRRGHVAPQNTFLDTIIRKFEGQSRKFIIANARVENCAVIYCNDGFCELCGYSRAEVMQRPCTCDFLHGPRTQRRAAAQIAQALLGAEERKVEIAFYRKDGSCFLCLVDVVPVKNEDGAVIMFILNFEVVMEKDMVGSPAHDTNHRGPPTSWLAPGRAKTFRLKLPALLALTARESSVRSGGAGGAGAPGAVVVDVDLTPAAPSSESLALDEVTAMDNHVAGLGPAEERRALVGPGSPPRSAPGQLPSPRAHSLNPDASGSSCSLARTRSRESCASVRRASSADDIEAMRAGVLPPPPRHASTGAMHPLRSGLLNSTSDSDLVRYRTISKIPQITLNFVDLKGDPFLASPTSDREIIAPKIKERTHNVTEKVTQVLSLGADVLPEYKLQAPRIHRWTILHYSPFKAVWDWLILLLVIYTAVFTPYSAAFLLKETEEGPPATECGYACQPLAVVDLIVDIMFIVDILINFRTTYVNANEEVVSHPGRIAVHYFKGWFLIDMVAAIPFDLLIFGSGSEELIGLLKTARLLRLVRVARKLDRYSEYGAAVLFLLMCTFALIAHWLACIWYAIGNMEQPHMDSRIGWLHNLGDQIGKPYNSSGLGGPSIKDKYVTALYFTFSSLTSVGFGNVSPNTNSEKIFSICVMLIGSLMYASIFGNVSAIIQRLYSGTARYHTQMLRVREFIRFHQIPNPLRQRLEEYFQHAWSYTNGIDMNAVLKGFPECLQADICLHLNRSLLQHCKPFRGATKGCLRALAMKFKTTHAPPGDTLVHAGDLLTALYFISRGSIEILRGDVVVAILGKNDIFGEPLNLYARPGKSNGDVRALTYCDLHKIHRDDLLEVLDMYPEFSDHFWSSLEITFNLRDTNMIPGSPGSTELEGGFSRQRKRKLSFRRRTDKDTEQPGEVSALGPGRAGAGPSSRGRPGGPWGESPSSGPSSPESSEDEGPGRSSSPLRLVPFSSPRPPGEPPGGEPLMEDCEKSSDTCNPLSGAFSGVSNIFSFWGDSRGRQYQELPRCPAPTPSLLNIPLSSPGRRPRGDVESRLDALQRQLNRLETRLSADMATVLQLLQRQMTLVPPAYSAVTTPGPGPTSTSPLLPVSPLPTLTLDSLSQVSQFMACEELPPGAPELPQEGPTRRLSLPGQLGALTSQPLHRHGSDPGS
Regarding `Cc1cccc(Oc2nc3ccccn3c(=O)c2/C=C(\C#N)C(=O)NC2CCS(=O)(=O)C2)c1C` (centres unmarked), the “hERG current change (%, negative = inhibition) at 1uM” value was 15.9%. As for `Cc1cccc(CNC(=O)C2CCC(=O)N(C3CCCC3)C2)c1` (centres unmarked), the figure is 25.3%.

`CCOC(=O)c1sc2ncn(CC(=O)N(CC)CC)c(=O)c2c1C`: the “hERG current change (%, negative = inhibition) at 1uM” value turned out to be 9.01%. Next, `CCOC(=O)c1cccnc1SCC(=O)Nc1ccc(C)cc1`: 3.81%.

For the compound `Cc1ccc(-n2nnc(-c3nccs3)n2)cc1`, the “hERG current change (%, negative = inhibition) at 1uM” value was -2.2%. Next, `CCOC(=O)Cn1cc(C(=O)C(=O)N2CCOCC2)c2ccccc21`: -3.81%; `CNc1nc(-c2ccccc2)nc(-c2ccccc2)c1C#N`: 14.1%; `Cn1c(C(=O)N2CCCCCC2)cc2c(=O)n(C)c3ccccc3c21`: 0.569%. As for `Cc1cccc2[nH]c(-c3ccc(NC(=O)c4ccco4)cc3)nc12`, the figure is 2.22%.

`Cc1c(C#N)c(N)c(C(=O)c2ccccc2)n1Cc1ccccc1`: the “hERG current change (%, negative = inhibition) at 1uM” value was 5.47%. As for `O=C(CCC(=O)c1ccc(F)cc1)Nc1cccc(S(=O)(=O)Nc2cccc(Cl)c2)c1`, the figure is 4.34%; as for `Cc1ccc(NC(=O)Nc2nnc(Cc3ccc([N+](=O)[O-])cc3)s2)cc1`, 12%. For the compound `O=C(NCCNC(=O)c1ccccc1F)c1ccco1.O=C(O)C(=O)O`, the “hERG current change (%, negative = inhibition) at 1uM” value was determined as 10%. As for `Cc1ccc(C)c(OCc2cc(C(=O)N(C)Cc3nccn3C)no2)c1`, the “hERG current change (%, negative = inhibition) at 1uM” value was found to be 12.1%. As for `CCCS(=O)(=O)N1CCCC(C(=O)NCCc2ccccc2)C1` (centres unmarked), the figure is 11.3%; as for `COc1cc([N+](=O)[O-])ccc1NC(=O)NN1CCN(C)CC1`, -7.37%; as for `COc1ccccc1NC1=C(Cl)C(=O)N(c2ccccc2)C1=O`, -1.68%. For the compound `O=C(OCCN(C1=NS(=O)(=O)c2ccccc21)c1ccccc1Cl)c1ccc(Cl)cc1`, the “hERG current change (%, negative = inhibition) at 1uM” value is -0.504%.

As for `C=C1CCN(c2ccc(C(=O)O)cc2[N+](=O)[O-])CC1`, the “hERG current change (%, negative = inhibition) at 1uM” value came out at 16.8%.

Regarding `COc1cc(NC(=O)c2cccc(Cl)c2)c(OC)cc1NC(=O)CN1CCOCC1`, the “hERG current change (%, negative = inhibition) at 1uM” value is given as -10.2%. As for `O=C(NCCc1ccccc1)C(=O)NCC1OCCN1S(=O)(=O)c1ccc(F)cc1` (centres unmarked), the figure is 2.05%; as for `O=C(OCc1cccc([N+](=O)[O-])c1)c1cccnc1Cl`, 0.438%; as for `O=C(Nc1ccncc1)C1CCC(CNS(=O)(=O)c2cccc3nsnc23)CC1` (centres unmarked), 4.39%. Regarding `O=C(CCN1C(=O)c2ccccc2C1=O)Nc1nc2ccccc2s1`, the “hERG current change (%, negative = inhibition) at 1uM” value is recorded as 8.11%. As for `CN(C)CCC1Sc2ccccc2Oc2ccccc21.O=C(O)C(=O)O` (centres unmarked), the figure is 5.08%; as for `CCN(CC)CCCNc1ncnc2scc(-c3ccc(F)cc3)c12`, 2.18%; as for `CCOC(=O)[C@H]1[C@H]2COc3ccc(C)cc3[C@@H]2N2C(=O)CN(Cc3ccc(Cl)cc3)C(=O)[C@@]12C`, 11.7%.

For the compound `CC(OC(=O)CCOc1ccccc1)C(=O)NC1CC1` (centres unmarked), the “hERG current change (%, negative = inhibition) at 1uM” value is 14.1%. As for `O=C(O)c1ccc(NCc2cccnc2)c([N+](=O)[O-])c1`, the figure is 18.8%; as for `C=CCN(CC=C)C(=S)Nc1cc(Cl)ccc1OC`, 12.4%.

Consider `O=C(CCc1ccccc1)NC(=S)Nc1cc(C(F)(F)F)ccc1N1CCOCC1`, for which the “hERG current change (%, negative = inhibition) at 1uM” value worked out at 5.7%. Next, `O=C1/C(=C/c2ccc(Cl)cc2)NC(=S)N1Cc1cccnc1`: 9.26%; `Cc1ccc(O)c(NC(=O)c2onc(C)c2Cl)c1`: 10.8%.

For the compound `O=C(/C=C/c1ccccc1Cl)N(c1ccccn1)C1CCCCC1`, the “hERG current change (%, negative = inhibition) at 1uM” value is reported as 7.03%. Next, `COc1cc(C(=O)N2CCN(c3ccccc3O)CC2)ccc1OCC(=O)N1CCOCC1`: 5.73%; `Cc1ccc(-c2nc3ccccc3s2)cc1NC(=S)NC(=O)c1ccccc1`: 20.5%; `CC(NC(=O)CCNC(=O)c1ccco1)c1ccccc1` (centres unmarked): 14.4%. Next, `Cc1ccc(C2=NN(C(=S)Nc3ccccc3)C(c3ccco3)C2)cc1` (centres unmarked): 10.8%; `Cc1c(CN2CCCCC2C)c(=O)n(-c2ccccc2)n1C` (centres unmarked): 4.08%. For `Cc1ccc(C)c(S(=O)(=O)N2CCCOC2CNC(=O)C(=O)NC2CCCCC2)c1` (centres unmarked), the “hERG current change (%, negative = inhibition) at 1uM” value is 2.9%. Next, `C=C(C)COc1ccc(-c2[nH]ncc2-c2ccc(OC)cc2)c(O)c1`: 13.9%. `Cc1nn(-c2ccccc2)c(C)c1/C=N/Nc1nc2ccccc2[nH]1`: the “hERG current change (%, negative = inhibition) at 1uM” value was 0.666%. As for `C=CCn1c(O)c(C(C)=Nc2cccc(C(=O)O)c2)c(=O)[nH]c1=O`, the figure is 8.55%; as for `CCOc1ccc(CN(C)C(=O)NNC(=O)c2ccc(C)cc2)cc1OC`, 13.6%.
